PubChem BioAssay AID938 (National Center for Advancing Translational Sciences (NCATS), 2007)
About 1,800 (2.5%) of roughly 73,000 compounds were called active. Inconclusive means that the source gave no clear call. Such entries were picked first, then a sample of the others. Calls follow the shape of the dose curve; as a rule, active = well fitted activation curve with a large enough effect; inconclusive = small, poorly fitted or top-dose-only effect; inactive = no such curve, though single readings can be large or run the other way. No potency is given beside an inconclusive call; the fits are too rough.

experiment: qHTS Assay for Agonists of the Thyroid Stimulating Hormone Receptor: Activators of Intracellular cAMP Concentrations in Parental HEK 293; conditions: parental HEK293 CNG cAMP sensor, membrane potential fluorescence; activation: at 57.1 µM (top of the series) unless noted; also: nearly all actives have a fitted effect of over 55% in size; as to activation: % of control where 0% means no effect
Outline: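 Parental HEK 293 cells stably expressing a modified CNG channel (no TSHR) report cAMP rise as membrane depolarization. Membrane potential dye with 100 uM RO 20-1724 was loaded for 60 min at room temperature, then compound added for 30 min; fluorescence read at 590 nm.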
Potency is read from the fitted curve at half-maximal effect; tags tell the direction and shape of the fitted curve.

Structure (SMILES) | Potency | activation
COc1cccc(-c2cc(NCc3cccnc3)ncn2)c1 | inconclusive [activator, single point] | –
CC(C)NC(=O)N1CCCC2(CCN(C(=O)c3cccn3C)CC2)C1 | inconclusive [activator, partial curve] | –
CCC(C)(C)n1nnnc1C(c1ccc(Cl)cc1)N1CCN(C)CC1 (stereo not drawn) | inconclusive [activator, single point] | –
O=S(=O)(c1ccc(-c2nnc(SCc3nnc(-c4ccccc4)o3)o2)cc1)N1CCCC1 | inconclusive [activator, partial curve] | –
O=C(Nc1ccccc1)N1CCCC2(CCN(C(=O)c3ccco3)CC2)C1 | inactive | –
CC(=O)N1CN(CCCn2ccnc2)Cc2c1sc1c2CCCC1 | inactive | –
N#Cc1cccc(NC(=O)CC2CCCCC2)c1 | inconclusive [activator, single point] | –
CCOC(=O)C1C(=O)C=C(c2ccc(OC)cc2)CC1c1ccco1 (stereo not drawn) | inconclusive [activator, partial curve] | –
O=C(COc1ccccc1)Nc1nc2ccccc2[nH]1 | inactive | –
COC(=O)c1cc2sc(Cl)cc2n1CC(=O)N1CCCc2ccccc21 | inconclusive [activator, partial curve] | –
Cc1nnc(SCC(=O)c2c(N)n(C)c(=O)n(C)c2=O)n1Cc1ccccc1 | inactive | –
COc1ccc(-c2nc3cnc(N4CCOCC4)nc3n(Cc3cccs3)c2=O)cc1 | inactive | –
Cc1cc(C)n(C(=O)C2CCCN2S(=O)(=O)c2ccc(Cl)cc2)n1 (stereo not drawn) | inconclusive [activator, partial curve] | –
COc1ccccc1N(CC(=O)N1CCCCC1)S(=O)(=O)c1ccccc1 | inconclusive [activator, single point] | –
COc1ccccc1N1CCN(CCN2C(=O)c3ccccc3C(C)(C)C2=O)CC1 | inconclusive [activator, single point] | –
CCn1c(SCC(=O)n2c(C)c(C)c3ccccc32)nnc1-c1ccco1 | inconclusive [activator, partial curve] | –
N#Cc1cc2ccccc2nc1SCC(=O)Nc1ccc(S(=O)(=O)N2CCCC2)cc1 | inconclusive [activator, full curve, poor fit] | –
Cc1oc(/N=C/c2ccccc2O)c(C#N)c1C | inactive | –
COc1ccc(C(=O)N2CCC3(CC2)CN(c2ccncc2)C3)cc1 | inactive | –
Cc1cc(C)n(-c2nc3ccccc3nc2N2CCN(C(=O)c3ccc(F)cc3)CC2)n1 | inactive | –
O=C(CSc1nnc(-c2cccs2)o1)c1cccs1 | inactive | –
O=c1cc(CN2CCC3(CC2)OCCO3)c2c(ccc3ccccc32)o1 | inconclusive [activator, single point] | –
O=C1N2c3ccccc3CCc3cccc(c32)C1(O)C(F)(F)F (stereo not drawn) | inconclusive [activator, single point] | –
COC(=O)c1oc2ccc(Br)cc2c1NC(=O)c1ccccc1 | inconclusive [activator, partial curve] | –
CCn1c(SCc2nc(-c3cccs3)no2)nnc1-c1c[nH]c2ccccc12 | inconclusive [activator, partial curve] | –

Structure (SMILES) | Potency | activation
C[C@H](CO)NC(=O)[C@H]1C[C@@H]1[C@H](NP(=O)(c1ccccc1)c1ccccc1)c1ccccc1 | inactive | –
CCc1cc(Br)ccc1N1C(=O)C2CC=CCC2C1=O (stereo not drawn) | – | inactive: 6.51% [at 11.4 µM]
CCn1c(CSc2nc3ccccc3s2)nnc1SCC(=O)c1ccc2c(c1)OCCO2 | inconclusive [activator, single point] | –
COC(=O)Cn1c(C(=O)N(C)C)cc2c1C[C@H]1CN(C(=O)c3ccccc3)[C@@](Cc3ccc(OC)cc3)(C(=O)OC)[C@@H]21 | inconclusive [activator, single point] | –
COc1ccccc1NC(=O)Cc1noc(CSc2cc(C)c3ccccc3n2)n1 | inconclusive [activator, partial curve] | –
Nc1nc(CSc2ccccn2)nc(Nc2ccccc2)n1 | inconclusive [activator, single point] | –
CC(=O)c1cccc(S(=O)(=O)N2CCC(n3nnc4cc(F)ccc43)CC2)c1 | inconclusive [activator, single point] | –
COCCn1c(=O)c(C)nc2cnc(Nc3ccccc3)nc21 | inconclusive [activator, partial curve, poor fit] | –
O=C(CSc1nnc(-c2ccc(O)cc2)n1Cc1ccco1)N1CCc2ccccc2C1 | inactive | –
O=C(O)c1cccc(Cl)c1Cl | inactive | –
Cn1c(=O)c2c(nc(C(=N)SCC(=O)O)n2C)n(C)c1=O | – | inactive: -4.19% [at 11.4 µM]
c1cncc(-c2noc(-c3ccco3)n2)c1 | inconclusive [activator, single point] | –
O=C1[C@@H]2C=CC=CC2=NC(=S)N1CCN1CCC(=C(c2ccc(F)cc2)c2ccc(F)cc2)CC1 | inconclusive [activator, full curve, poor fit] | –
CCN(CC)S(=O)(=O)c1ccc2c(c1)nc(SCc1nc3ccsc3c(=O)[nH]1)n2CC | inconclusive [activator, single point] | –
O=C(NCC1CCCO1)C1CCN(S(=O)(=O)c2cccnc2)CC1 (stereo not drawn) | inconclusive [activator, single point] | –
COc1ccccc1NS(=O)(=O)c1cccc2cccnc12 | inactive | –
O=C(Nc1ccccc1N1CCCCC1)c1ccccc1F | inconclusive [activator, partial curve] | –
CC(C)Cn1c(SCC#N)nc2ccccc2c1=O | inconclusive [activator, single point] | –
CCCOc1c(OC)cccc1C1CC(=O)Nc2cc3c(cc21)OCO3 (stereo not drawn) | inconclusive [activator, single point] | –
COc1cc(CN(C(=O)c2ccco2)c2ccc(C)cc2)ccc1O | inactive | –
COC(=O)c1ccccc1NC(=O)COC(=O)c1cccnc1 | inactive | –
CC1(c2ccc(Cl)cc2Cl)OCC(Cn2ccnc2)O1 (stereo not drawn) | inconclusive [activator, partial curve] | –
Cc1ccc(C(C(=O)NCc2ccco2)N(CCc2ccccc2)C(=O)Cn2nnc3ccccc32)o1 (stereo not drawn) | active: 12.6 µM | –
COC(=O)c1cccc(Oc2nc3c(c(=O)n(C)c(=O)n3C)n2C(C)C)c1 | inactive | –
COC1=Cc2c(ccc3ccc(=O)oc23)OC1(C)C | inconclusive [activator, single point] | –

Structure (SMILES) | Potency | activation
CCCC(c1nnnn1C(C)(C)CC)N(CCCO)Cc1cc2cc(C)cc(C)c2[nH]c1=O (stereo not drawn) | inconclusive [activator, partial curve] | –
Cc1cc2nc(-c3ccc(SCC(=O)N4CCOCC4)nc3)[nH]c2cc1C | inactive | –
CCc1ccc(NC(=O)c2cccnc2)cc1 | inactive | –
O=C(Nc1cccnc1)Nc1ccccn1 | inconclusive [activator, single point] | –
Cc1ccc(O)c(C(=O)c2cnc3c(c2)CN(CCC(C)C)C(=O)N3)c1 | inactive | –
Cc1ccc(CNc2cc(-c3nn4c(C)nnc4s3)ccc2C)s1 | inactive | –
COC(=O)N1CCC2(CCN(C(=O)Nc3ccccc3)CC2)CC1 | inconclusive [activator, single point] | –
COc1cccc(-c2cncnc2N(C)Cc2ccco2)c1 | inactive | –
COC(=O)c1ccc(C(=O)OC)c(NC(=O)CSc2nnc(-c3ccccc3Cl)o2)c1 | inconclusive [activator, single point] | –
COc1ccc(C)cc1NC(=O)CN(Cc1nnc(-c2ccc(Cl)cc2)o1)C1CCCC1 | active: 15.8 µM | –
CCOC(=O)CC1Sc2ccccc2NC1=O (stereo not drawn) | inconclusive [activator, single point] | –
CC1CC(c2ccccc2)n2nc(NC(=O)CCc3ccccc3)nc2N1 (stereo not drawn) | inconclusive [activator, single point] | –
Cn1c2ccccc2c2c(C(=O)N3CCN(c4ccccc4)CC3)cn(C3CCCC3)c(=O)c21 | inactive | –
Cc1nn(-c2ccccc2C(=O)O)c(=O)c2ccccc12 | inactive | –
Cc1cccc(C)c1OCc1nnc(SCC(=O)NCCc2ccccc2)o1 | inconclusive [activator, single point] | –
COc1ccc2c(c1)c(=O)cc(C)n2CC(=O)NCc1ccco1 | inconclusive [activator, single point] | –
Cc1cc(Cl)cc(Cl)c1OCC(=O)NCc1ccco1 | – | inactive: -3.26% [at 11.4 µM]
CCCc1[nH][nH]c(=O)c1C(c1cccc(Cl)c1)C(C#N)C#N (stereo not drawn) | inconclusive [activator, single point] | –
Cc1occc1-c1nnc(SCc2nnc(-c3ccc(Cl)cc3)o2)n1C | inconclusive [activator, single point] | –
CCCn1cnc2c(cnn2-c2ccc(F)cc2)c1=O | inconclusive [activator, single point] | –
CCN(CC)CCn1c(-c2ccccc2)nc2c(N3CCOCC3)nc(C)nc21 | inconclusive [activator, partial curve] | –
N#CC(C(=O)OCc1ccccc1)c1nc2ccccc2nc1N1CCOCC1 (stereo not drawn) | inconclusive [activator, partial curve] | –
O=C(CN1CCN(c2ccc(Cl)cc2)CC1)Nc1cccc(F)c1 | inconclusive [activator, single point] | –
